Measurements reported in paper PMC4336329 (PLoS ONE, 2015).
Screen size: about 310,000 compounds; about 14,000 (4.5%) showed an effect of 50% or more. The effect is printed as a negative number. The list shows a part of the results.

Target: human ether-à-go-go-related gene (hERG) potassium channel (human, UniProt Q12809)
Experiment: primary screen, population patch clamp on CHO cells stably expressing hERG
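Note: peak tail current of the secondary pulse compared with the same well before compound.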

Chain of human ether-à-go-go-related gene (hERG) potassium channel (Q12809 whole entry, looked up): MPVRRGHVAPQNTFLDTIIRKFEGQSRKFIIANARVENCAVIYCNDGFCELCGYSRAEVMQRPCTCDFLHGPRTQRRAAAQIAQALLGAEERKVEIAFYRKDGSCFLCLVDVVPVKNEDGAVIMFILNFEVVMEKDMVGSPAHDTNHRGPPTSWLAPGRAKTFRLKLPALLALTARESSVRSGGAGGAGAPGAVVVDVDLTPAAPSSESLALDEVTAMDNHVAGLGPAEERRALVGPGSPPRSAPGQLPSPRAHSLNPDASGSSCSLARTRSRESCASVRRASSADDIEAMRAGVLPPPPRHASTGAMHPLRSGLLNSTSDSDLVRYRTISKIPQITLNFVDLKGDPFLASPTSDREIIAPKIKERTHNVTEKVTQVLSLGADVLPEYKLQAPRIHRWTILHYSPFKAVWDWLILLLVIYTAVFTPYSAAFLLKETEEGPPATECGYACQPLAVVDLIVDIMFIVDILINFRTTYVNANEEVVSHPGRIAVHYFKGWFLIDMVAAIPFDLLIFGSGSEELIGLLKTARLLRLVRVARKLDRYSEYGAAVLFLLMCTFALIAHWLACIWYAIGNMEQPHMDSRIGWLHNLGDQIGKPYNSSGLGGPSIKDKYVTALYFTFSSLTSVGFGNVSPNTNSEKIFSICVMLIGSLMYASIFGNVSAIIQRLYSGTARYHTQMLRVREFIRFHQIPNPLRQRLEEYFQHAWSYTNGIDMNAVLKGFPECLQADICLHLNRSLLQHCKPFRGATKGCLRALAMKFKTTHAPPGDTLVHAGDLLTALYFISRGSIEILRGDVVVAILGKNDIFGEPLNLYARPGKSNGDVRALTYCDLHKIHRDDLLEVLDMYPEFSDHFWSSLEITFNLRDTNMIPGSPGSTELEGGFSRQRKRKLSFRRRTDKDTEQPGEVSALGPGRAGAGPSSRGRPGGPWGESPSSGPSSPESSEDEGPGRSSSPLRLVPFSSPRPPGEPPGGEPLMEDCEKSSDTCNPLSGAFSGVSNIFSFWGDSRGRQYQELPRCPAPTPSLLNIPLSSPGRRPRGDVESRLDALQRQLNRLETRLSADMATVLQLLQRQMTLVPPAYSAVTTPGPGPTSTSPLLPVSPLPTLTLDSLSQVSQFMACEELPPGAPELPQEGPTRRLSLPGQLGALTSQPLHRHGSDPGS

| Structure (SMILES) | hERG current change (%, negative = inhibition) at 10uM [%] |
| --- | --- |
| Cc1cc(C)n2nc(C(=O)OCC(=O)N(C)C3CCS(=O)(=O)C3)nc2n1 (centres unmarked) | 7 |
| COc1ccc(S(=O)(=O)N2CCN(C3CCCCCCC3)CC2)cc1 | -15.1 |
| Cc1ccccc1OCC(=O)OCC(=O)NC1CC1 | 14 |
| CCOc1cc(NC(=S)NCCCN2CCOCC2)c(OCC)cc1NC(=O)c1ccc(C)cc1 | -13.3 |
| COc1cccc(OC)c1C(=O)Nc1ccc(N2CCCC2)cc1 | 7.52 |
| O=C(CCC(F)(F)F)N1CCC(CO)(CCc2ccccc2)CC1 | -12 |
| CN(C)CC(C)(C)CNC(=O)C1CCN(Cc2ccccc2O)CC1 | 11.2 |
| CCOc1ccc(CNC(=O)CCc2cn(C)c3ccccc23)cc1 | 9.59 |
| COc1ccccc1/C=C/C=N/n1c(-c2n[nH]c3c2CCC3)n[nH]c1=S | 18.8 |
| COc1cc(NC(=O)c2ccccc2)c(OC)cc1NC(=O)Cc1ccc(C)cc1 | 14.6 |
| CCOc1ccc(C2NC(=O)C(C#N)=C(S)N2c2ccc(C)cc2)cc1OC (centres unmarked) | 12.1 |
| COc1ccc(C2(CNC(=O)c3cccs3)CCOCC2)cc1 | 7.16 |
| CCOc1ccc(NC2=NC(C)(C)N=C(N)N2)cc1 | 7.83 |
| CC(C)[C@H](NC(=O)c1ccccc1)C(=O)OCC(=O)N1CCN(C(=O)c2ccco2)CC1 | 4.62 |
| CCN(C(=O)c1nn(-c2ccc(OC)cc2)c(=O)c2c1c1ccccc1n2C)c1ccc(OC)cc1 | 18.3 |
| COc1ccc(/C=C/C(=O)NC2=NCCS2)cc1OC | 3.96 |
| CC(NC(=O)C(c1ccccc1)c1ccccc1)C(=O)O (centres unmarked) | -6.09 |
| CCCN(CCC)S(=O)(=O)c1ccc(C(=O)Nc2nnc(COC)o2)cc1 | -1.57 |
| Oc1ccc2ccccc2c1N=Nc1nccs1 | 21 |
| OCCCc1nc2n(n1)C(c1ccccc1Cl)C=C(c1cccs1)N2 (centres unmarked) | -5.71 |
| COc1ccc(C(=O)N2CCN=C2SCc2cccnc2)cc1OC | -2.85 |
| Cc1ccc(C)c(NC(=O)CN(C)C(=O)Cn2c(=O)oc3ccccc32)c1 | 5.25 |

| Structure (SMILES) | hERG current change (%, negative = inhibition) at 10uM [%] |
| --- | --- |
| CCOc1ccc(/C=N/n2cnnc2)cc1 | 10.9 |
| CCCc1c(C(=O)O)cnn1-c1ccc(Cl)cc1 | 27.9 |
| O=C([O-])c1cc(-c2ccco2)nc2ccc(Br)cc12.[K+] | 3.31 |
| CS(=O)(=O)N(CC(=O)N1CCc2ccccc2C1)Cc1ccccc1 | -12.9 |
| Cc1ccc(C(=O)c2nccn2C)cc1C | 23.6 |
| O=C(Nc1cc(S(=O)(=O)N2CCOCC2)ccc1Oc1ccc(F)cc1)C1=COCCO1 | -69.8 |
| O=C(CCCCCn1c(=O)[nH]c2ccccc2c1=O)N1CCN(Cc2ccc3c(c2)OCO3)CC1 | -71.7 |
| COc1ccc(NC(=O)c2ccc3c(c2)OCCO3)cc1OC | 9.47 |
| COc1ccc(Br)cc1/C=C/C(=O)c1ccc(NC(C)=O)cc1 | 6.61 |
| COc1c(C)cc(C(=O)C2CCCN(C(=O)c3ccc4[nH]ccc4c3)C2)cc1C (centres unmarked) | 22.7 |
| CCOc1ccc(N2C(=O)C3C4C=CC([C@H]5CC45)[C@@H]3C2=O)cc1 (some centres unmarked) | 12.6 |
| Cc1c([N+](=O)[O-])c(C(=O)Sc2ccc(Br)cc2)nn1C | 17.1 |
| CCN(CC)C(=O)c1[nH]cnc1C(=O)N[C@H](C)c1ccccc1 | 14.9 |
| CC1CN(C2CCN(S(=O)(=O)c3ccc(F)cc3)CC2)CC(C)O1.O=C(O)C(=O)O (centres unmarked) | -5.34 |
| C=CCN(CC=C)S(=O)(=O)c1ccc(NC(=S)NC(=O)C2CC2)cc1 | -3.58 |
| CCN(CC)CC(=O)NC12CC3CC(CC(C3)C1)C2.Cl | 3.52 |
| FC(F)(F)c1cccc(-c2nc(COc3ccc(Cl)cc3Cl)no2)c1 | 15.2 |
| CCOC(=O)CNC(=O)CSc1nc2ncc(Br)cc2[nH]1 | 15.2 |
| CCOc1ccc(-n2nc3ccc(NC(=O)c4ccc5c(c4)OCCO5)cc3n2)cc1 | 2.62 |
| COc1ccc(C2C(C(=O)N3CCC(C)CC3)c3ccccc3C(=O)N2C)cc1 (centres unmarked) | -2.03 |
| COc1ccc(CCC(=O)N2CCCC(Nc3ccccc3)C2)cc1OC (centres unmarked) | -28.2 |
| Cc1cc(C)nc(NS(=O)(=O)c2ccc(NC(=O)c3ccc(S(=O)(=O)N4CC(C)OC(C)C4)cc3)cc2)n1 (centres unmarked) | 7.35 |
